This passage reports Potency results from PubChem BioAssay (NCATS).

Inconclusive results are not listed. Calls follow the shape of the dose curve; as a rule, active = well fitted curve in the direction sought with a large enough effect; inconclusive = small, poorly fitted or top-dose-only effect, or another doubt; inactive = no such curve, though single readings can be large; an effect the other way counts as inactive or inconclusive. More than one record can exist for a structure, and the calls need not agree. Some entries of the source have several records that differ or are many. Only these are listed. There may be further records. Results that share an entry are repeats across runs, samples, wells, individuals or studies. Records carry a tag for their origin. Letters hold for one entry only.
Potency is read from the fitted curve at half-maximal effect.

The nature of the first test: qHTS of pediatric cancer cell lines to identify multiple opportunities for drug repurposing: Primary screen for TC32 cells (AID 1347089). Also: nearly all actives have a fitted effect of over 60% in size. Particulars: TC32 Ewing sarcoma viability, CellTiter-Glo luminescence, 48 h; series mostly up to 45.8 µM. In outline:
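TC32 cells, 500-1,000/well in growth medium, compound-treated 48 h at 37 °C; viability from CellTiter-Glo luminescence. Primary screen: MIPE 11-point (0.78 nM–46 µM final), NPC 8-point (0.59 nM–46 µM final); confirmatory at 11-point dilutions.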
As to `CC#C[C@]1(O)CC[C@H]2[C@@H]3CCC4=CC(=O)CCC4=C3[C@@H](c3ccc(N(C)C)cc3)C[C@@]21C`, the Potency entry is “inactive [sample A] and active: 20.8 µM [sample B]”.

As to `NC(=O)NO`, the Potency result was “inactive [sample A] and active: 20.8 µM [sample B]”.

With `CN(C)CCOC(c1ccccc1)c1ccccc1`, the Potency result was “active: 8.29 µM [sample A] and inactive [sample B]”.

A further test can be described thus: qHTS of pediatric cancer cell lines to identify multiple opportunities for drug repurposing: Primary screen for DAOY cells (AID 1347090). Also: nearly all actives have a fitted effect of over 55% in size. The conditions noted are these: DAOY medulloblastoma viability, CellTiter-Glo luminescence, 48 h; series mostly up to 46 µM. A digest of the protocol: (§1)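 Viability measured as metabolically active cells via CellTiter-Glo luminescence following 48 hours of compound exposure, 11-point dilutions in confirmatory testing. 500-1,000 cells/well plated 5 hours before dosing; controls were DMSO and 2.3 µM bortezomib.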
In the case of `CCC1(c2ccccc2)C(=O)NCNC1=O`, the Potency result is “active: 4.69 µM [sample A] and inactive [sample B]”.

Take `COc1ccc2c(c1)c(CC(=O)O)c(C)n2C(=O)c1ccc(Cl)cc1`: the Potency result is “inactive [sample A] and active: 18.7 µM [sample B]”.

For the compound `CN(C)CCCN1c2ccccc2CCc2ccc(Cl)cc21`, the Potency result is “active: 372 nM [sample A] and inactive [sample B]”.

As to `CN1CCC(=C2c3ccccc3CC(=O)c3sccc32)CC1`, the Potency result is “active: 18.7 µM [sample A] and inactive [sample B]”.

With `CC(C)NCC(O)c1ccc(O)c(O)c1` (configuration not stated), the Potency entry was “active: 3.72 µM [sample A] and inactive [sample B]”.

`Cc1cn([C@H]2C=C[C@@H](CO)O2)c(=O)[nH]c1=O`: the Potency result is “active: 42.9 µM [sample A] and inactive [sample B]”.

In the case of `CC12CC3CC(C)(C1)CC(N)(C3)C2`, the Potency entry was “active: 23.5 µM [sample A] and inactive [sample B]”.

Take `OCCN(CCO)c1nc(N2CCCCC2)c2nc(N(CCO)CCO)nc(N3CCCCC3)c2n1`: the Potency result is “active: 29.6 µM [sample A] and inactive [sample B]”.

A short description of another test: qHTS of pediatric cancer cell lines to identify multiple opportunities for drug repurposing: Primary screen for SJ-GBM2 cells (AID 1347091). Particulars: SJ-GBM2 viability, CellTiter-Glo luminescence, 48 h; series mostly up to 46 µM. A digest of the protocol: as §1
`CC(C)C(=O)Nc1ccc([N+](=O)[O-])c(C(F)(F)F)c1`: the Potency entry was “inactive [sample A] and active: 590 nM [sample B]”.

With `CC(C)(Oc1ccc(C2CC2(Cl)Cl)cc1)C(=O)O` (configuration not stated), the Potency result is “active: 10.8 µM [sample A] and inactive [sample B]”.

Consider `C[C@@H]1CC(=O)NN=C1c1ccc(NN=C(C#N)C#N)cc1`, for which the Potency result is “inactive [sample A] and inactive [sample B] and active: 23.5 µM [sample C]”.

Take `NC(=O)NO`: the Potency result was “inactive [sample A] and active: 526 nM [sample B]”.

Regarding `Cn1cnc2c1c(=O)[nH]c(=O)n2C`, the Potency entry is “inactive [sample A] and active: 13.2 µM [sample B]”.

`CC(C)NCC(O)c1ccc(O)c(O)c1` (configuration not stated): the Potency entry is “active: 11.8 µM [sample A] and inactive [sample B]”.

Consider `Nc1nc2c(ncn2COC(CO)CO)c(=O)[nH]1`, for which the Potency result is “active: 5.26 µM [sample A] and inactive [sample B]”.

The nature of the next test: qHTS of pediatric cancer cell lines to identify multiple opportunities for drug repurposing: Primary screen for A673 cells (AID 1347092). Also: nearly all actives have a fitted effect of over 45% in size. Particulars: A673 Ewing sarcoma viability, CellTiter-Glo ATP luminescence, 48 h; series mostly up to 46 µM. In outline: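 A673 cells (500-1,000 cells/well) were treated 48 hours at 37 degrees C with compounds at 11-point (0.78 nM to 46 µM) or 8-point (0.59 nM to 46 µM) dilutions. Viability read by CellTiter-Glo luminescence; concentration-response curves fitted.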
For `CCC1(c2ccccc2)C(=O)NCNC1=O`, the Potency result was “active: 9.35 µM [sample A] and inactive [sample B]”.

With `CC1COc2c(N3CCN(C)CC3)c(F)cc3c(=O)c(C(=O)O)cn1c23` (configuration not stated), the Potency entry was “inactive [sample A] and active: 18.7 µM [sample B]”.

For the compound `NC12CC3CC(CC(C3)C1)C2`, the Potency result is “active: 2.96 µM [sample A] and inactive [sample B]”.

On to `COc1ccc2c(c1)c(CC(=O)O)c(C)n2C(=O)c1ccc(Cl)cc1`, for which the Potency entry is “inactive [sample A] and active: 14.8 µM [sample B]”.

Regarding `CC(COc1ccccc1)N(CCCl)Cc1ccccc1` (configuration not stated), the Potency result was “inactive [sample A] and active: 9.35 µM [sample B]”.

As for `CC(C)(Oc1ccc(C2CC2(Cl)Cl)cc1)C(=O)O` (configuration not stated), the Potency entry is “active: 10.8 µM [sample A] and inactive [sample B]”.

With `Cc1cn([C@H]2C[C@H](N=[N+]=[N-])[C@@H](CO)O2)c(=O)[nH]c1=O`, the Potency entry was “active: 372 nM [sample A] and inactive [sample B]”.

As to `NC(=O)NO`, the Potency entry was “inactive [sample A] and active: 2.35 µM [sample B]”.

For the compound `Cn1cnc2c1c(=O)[nH]c(=O)n2C`, the Potency entry is “inactive [sample A] and active: 18.7 µM [sample B]”.

As for `CC(C(=O)O)c1cccc(C(=O)c2ccccc2)c1` (configuration not stated), the Potency entry is “inactive [sample A] and active: 14.8 µM [sample B]”.

Regarding `CN1CCC(=C2c3ccccc3CC(=O)c3sccc32)CC1`, the Potency entry is “active: 14.8 µM [sample A] and inactive [sample B]”.

For `CC12CC3CC(C)(C1)CC(N)(C3)C2`, the Potency result is “active: 1.18 µM [sample A] and inactive [sample B]”.

Consider `Nc1nc2c(ncn2COC(CO)CO)c(=O)[nH]1`, for which the Potency result is “active: 18.7 µM [sample A] and inactive [sample B]”.

As for `OCCN(CCO)c1nc(N2CCCCC2)c2nc(N(CCO)CCO)nc(N3CCCCC3)c2n1`, the Potency result is “active: 29.6 µM [sample A] and inactive [sample B]”.
